Measured values reported in PubChem BioAssay AID588855 (National Center for Advancing Translational Sciences (NCATS), 2011).
The campaign covered roughly 410,000 compounds. About 5,000 (1.2%) were called active. The shares of active, inactive and inconclusive entries below differ from those in the screen. The call rests on the fitted dose curve; in most records, active means well fitted inhibition curve with a large enough effect; inconclusive means small, poorly fitted or top-dose-only effect; inactive means no such curve, though single readings can be large or run the other way. Where the call is inconclusive, the potency comes from a doubtful curve fit.

Assay: qHTS for Inhibitors of TGF-b; further: nearly all actives have a fitted effect of over 65% in size
Details: HepG2 CAGA-GFP TGF-b/SMAD3 reporter, GFP fluorescence, 18 h, TGF-beta stimulated, 500 pg/mL final; series mostly up to 46.1 µM; activity, negative = inhibition: at the top concentration
Procedure, shortened: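 Using HEPG2 CAGA-GFP reporter cells at 1000 cells/well, we pinned test compounds, stimulated with recombinant TGF-beta (500 pg/mL final) and measured total well GFP after 18 h.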
On the % scale 0 is the no-effect control and ±100 the full control effect; potency means the concentration at half of the fitted maximal effect; tags describe the fitted curve by direction and shape.

Structure (SMILES) | activity, negative = inhibition | Potency
CCOc1ccc(CNC(=O)c2ccc(NC(=O)N3CCCCc4ccccc43)cc2)cc1OC | inactive: -12.8% | –
O=C(CCc1nc2cccnc2n1Cc1cccs1)Nc1cccc(Cl)c1 | – | inconclusive: 15.8 µM [inhibitor, single point]
COc1ccc(S(=O)(=O)N(C)c2ccc(C(=O)N3CCOCC3)cc2)cc1OC | – | inconclusive: 22.4 µM [inhibitor, single point]
O=C(c1ccc(F)cc1)N1CCN(c2ccc([N+](=O)[O-])c(N3CCOCC3)c2)CC1 | inactive: -0.656% | –
CC(C)(C)C(=O)O/N=C(\N)c1ccc([N+](=O)[O-])s1 | – | inconclusive: 35.5 µM [inhibitor, single point]
CC1=C(C(=O)N(C(C)C)C(C)C)CC(CC(=O)NCc2cccc3ccccc23)C(=O)N1CCC1=CCCCC1 (centres undefined) | – | inconclusive: 11.2 µM [inhibitor, partial curve, poor fit]
COc1cccc(NC(=O)N(C)C[C@H]2OCc3cn(nn3)CCCC(=O)N([C@@H](C)CO)C[C@@H]2C)c1 | inactive: 0.53% | –
O=C(Nc1nnc(-c2ccccn2)o1)c1ccc(Br)cc1 | – | inconclusive: 0.112 µM [inhibitor, full curve, poor fit]
COc1cc(/C=N/N=C2/C(=O)Nc3ccccc32)cc(OC)c1O | – | inconclusive: 25.1 µM [inhibitor, single point]
CCOC(=O)C1(CCOC)CCCCC1=O (centres undefined) | inactive: -5.87% | –
O=C(CCl)Nc1c(C(=O)Nc2ccc3c(c2)OCCO3)oc2ccccc12 | – | inconclusive: 17.8 µM [inhibitor, single point]
Cc1cc(=O)n2nc(N3CCC(C(=O)NCc4cccc(Cl)c4)CC3)sc2n1 | inactive: 1.42% | –
Cc1cc(C(=O)NP(=O)(N2CCOCC2)N2CCOCC2)c(C)n1-c1ccc(Br)cc1 | inactive: 3.63% | –
COc1ccc(CNC(=O)c2ccc3c(c2)N(Cc2cccc(Cl)c2)C(=O)c2ccccc2S3)c(OC)c1 | inactive: -0.273% | –
NC(=O)NC(=O)COC(=O)/C=C/c1cccs1 | inactive: 2.12% | –
O=C(N/N=C/c1ccc([N+](=O)[O-])cc1)c1ccc(NS(=O)(=O)c2cccs2)cc1 | inactive: 18% | –
Cc1ccccc1-c1csc(C(O)(c2ccccc2)C(F)(F)F)n1 (centres undefined) | – | inconclusive: 35.5 µM [inhibitor, single point]
Cc1ccc(CNC(=O)c2nc(SCc3ccc(C)cc3)ncc2Cl)cc1 | – | inconclusive: 1.58 µM [inhibitor, partial curve, poor fit]
Cc1cc(Sc2nc(N)ncc2[N+](=O)[O-])ncn1 | – | active: 10 µM
Cc1ccc(C)c(N2CCN(CC3CCCCC3)CC2)c1 | inactive: -8.71% | –
CN(Cc1ccc(Br)cc1)CC(O)COc1cccc(Br)c1 (centres undefined) | – | inconclusive: 17.8 µM [inhibitor, partial curve, poor fit]
CCOC(=O)C1CCN(S(=O)(=O)c2cc(-c3onc(C)c3C)ccc2OC)CC1 | inactive: 0.928% | –

Structure (SMILES) | activity, negative = inhibition | Potency
CC(=O)Nc1ccc(Nc2cc(-c3ccccc3)nc3ncnn23)cc1 | inactive: -1.12% | –
Cc1ccc(-c2csc(N(CCO)CCCn3c(C(F)(F)F)nc4ccccc43)n2)cc1 | – | inconclusive: 12.6 µM [inhibitor, partial curve, poor fit]
COC(=O)c1c(SCc2cccc3ccccc23)nc(=O)[nH]c1C | – | inconclusive: 35.5 µM [inhibitor, single point]
Cc1c(Cc2ccccc2)c(=O)oc2cc(OCC(N)=O)ccc12 | – | inconclusive: 3.55 µM [inhibitor, single point]
Nn1c(COc2ccccc2F)nnc1SCC(=O)NC1CCCCC1 | – | inconclusive: 3.16 µM [inhibitor, single point]
NC(=S)N/N=C1\CC(n2nnnc2-c2ccccc2Cl)C2COC1O2 (centres undefined) | – | inconclusive: 0.1 µM [inhibitor, full curve, poor fit]
COc1ccc(C=NNc2ccc(S(=O)(=O)Nc3ccccc3C(=O)O)cc2[N+](=O)[O-])c(OC)c1 | – | inconclusive: 35.5 µM [inhibitor, single point]
CCOc1ccccc1CNC(=O)c1cc2c(=O)n(Cc3ccccc3)ccc2nc1C | – | inconclusive: 17.8 µM [inhibitor, single point]
C=CCNC(=O)/C(C#N)=C/c1c(N2CCN(c3ccc(OC)cc3)CC2)nc2c(C)cccn2c1=O | – | inconclusive: 15.8 µM [inhibitor, single point]
COc1ccc(-c2csc(N(CCCN(C)C)C(=O)c3ccccc3Cl)n2)cc1 | – | inconclusive: 35.5 µM [inhibitor, single point]
O=C(CN1CCOCC1)OCCCC1CCCCC1 | – | inconclusive: 35.5 µM [inhibitor, single point]
Cc1ccc(C(C)C)c(OCCNC(=O)c2cncc(Br)c2)c1 | – | inconclusive: 35.5 µM [inhibitor, single point]
CCN1C(=NCC2CC2)N[C@@H](c2cccc(C(F)(F)F)c2)C(C(=O)OC)=C1C | – | inconclusive: 35.5 µM [inhibitor, single point]
CCC1CN(S(=O)(=O)c2cc(-c3cc(C)no3)ccc2OC)c2cc(C)ccc2O1 (centres undefined) | – | inactive
O=C(Cn1cncc1-c1ccc([N+](=O)[O-])cc1)Nc1cccc2ccccc12 | – | inconclusive: 0.562 µM [inhibitor, full curve, poor fit]
COc1cc2cc(CCOC(=O)N3CCCCC3)oc(=O)c2cc1OC | – | inconclusive: 8.91 µM [inhibitor, partial curve, poor fit]
Cc1cccc(NC(=O)COC(=O)c2ccc(C)c(S(=O)(=O)N3CCCCC3)c2)c1 | – | inconclusive: 35.5 µM [inhibitor, single point]
CC(C(=O)O)n1nnc2ccccc21 (centres undefined) | – | inconclusive: 0.562 µM [inhibitor, full curve, poor fit]
CCSc1nnc(Nc2ccccc2)s1 | inactive: -3.52% | –
Cc1cc2cc(C)c(NCCNC(=O)c3cccc(F)c3)nc2cc1C | – | inconclusive: 35.5 µM [inhibitor, single point]
CC(=O)C1=C(O)C(=O)N(c2cccc(Br)c2)C1c1ccccc1Cl (centres undefined) | inactive: -2.94% | –
Cc1ccn2c(=O)nc(SCC(=O)N3CCC(C)CC3)nc2c1 | – | inconclusive: 35.5 µM [inhibitor, single point]
